The other results are listed elsewhere or left out. These are enrichments in a pooled selection; single values are uncertain.
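Further: S2-R+ lysate came from cells stably expressing FLAG-tagged AGO2, enrichment per 5N variant computed with FASTAptamer, reads lacking the constant 3′ segment discarded.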

The test system of the assay is Drosophila AGO1 (endogenous, S2-R+ lysate). Briefly: AGO1 loading enrichment factor (IP read count / input read count, not library-size normalised) (ratio); higher = more efficient loading into AGO1. The following applies: randomized region: 5' 5N of miR-317 loop. Here is the method:
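HISSA: 5'-phosphorylated, 32P-labelled 20-nt ssRNA oligos (miR-317 loop, first 5 nt randomized, constant 3' part TGAAATGCAAGCAAG as printed in methods; DNA letters for RNA) incubated 1 h at 25°C in S2-R+ cell lysate. Endogenous AGO1 was immunopurified with anti-AGO1 and bound oligos were sequenced after splinted ligation.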
Consider CGACATGAAATGCAAGCAAG, for which the “AGO1 loading enrichment factor” value was 1.42. As for AGAGTTGAAATGCAAGCAAG, the figure is 0.0833; as for CGGCTTGAAATGCAAGCAAG, 0.0773. Then GAATATGAAATGCAAGCAAG, with 0.132; and ACGGATGAAATGCAAGCAAG, with 0.376; and TCTCGTGAAATGCAAGCAAG, with 0.347. Consider GCGCTTGAAATGCAAGCAAG, for which the “AGO1 loading enrichment factor” value is 0.0511. As for CGAGCTGAAATGCAAGCAAG, the figure is 0.00327. Take GGTCTTGAAATGCAAGCAAG: the “AGO1 loading enrichment factor” value stood at 0.00932. Regarding GCCTATGAAATGCAAGCAAG, the “AGO1 loading enrichment factor” value was 0.113. With AGGTATGAAATGCAAGCAAG, the “AGO1 loading enrichment factor” value was 0.072. Then AGTTCTGAAATGCAAGCAAG, with 0.182; and TGATATGAAATGCAAGCAAG, with 0.139; and ATCGGTGAAATGCAAGCAAG, with 0.211. As for TCCTCTGAAATGCAAGCAAG, the figure is 1.04; as for TATCGTGAAATGCAAGCAAG, 0.504; as for GGTGGTGAAATGCAAGCAAG, 1.63.

With CTTAGTGAAATGCAAGCAAG, the “AGO1 loading enrichment factor” value worked out at 0.0367. Then AGGCGTGAAATGCAAGCAAG, with 0.113; and ACACATGAAATGCAAGCAAG, with 0.212; and CTACTTGAAATGCAAGCAAG, with 0.16. As for CCCCTTGAAATGCAAGCAAG, the figure is 0.00279; as for GTTAATGAAATGCAAGCAAG, 0.148. Then GTCTTTGAAATGCAAGCAAG, with 0.0521. Consider GGGTTTGAAATGCAAGCAAG, for which the “AGO1 loading enrichment factor” value came to 0.112. Then GTTAGTGAAATGCAAGCAAG, with 0.0997; and CCCTATGAAATGCAAGCAAG, with 0.106. For CGGGTTGAAATGCAAGCAAG, the “AGO1 loading enrichment factor” value was 0.255. In the case of TTTAATGAAATGCAAGCAAG, the “AGO1 loading enrichment factor” value came out at 0.925. As for GGCCATGAAATGCAAGCAAG, the figure is 0.304; as for CCGTTTGAAATGCAAGCAAG, 0.148. On to TGAGGTGAAATGCAAGCAAG, for which the “AGO1 loading enrichment factor” value was determined as 0.39. Take TCGGGTGAAATGCAAGCAAG: the “AGO1 loading enrichment factor” value came to 0.525. As for AAGATTGAAATGCAAGCAAG, the figure is 0.113; as for ATGCGTGAAATGCAAGCAAG, 0.401; as for ATCGATGAAATGCAAGCAAG, 0.282.

In the case of TCATCTGAAATGCAAGCAAG, the “AGO1 loading enrichment factor” value is 0.194. As for TCGTCTGAAATGCAAGCAAG, the figure is 0.398; as for GGTTATGAAATGCAAGCAAG, 0.145; as for CTCCCTGAAATGCAAGCAAG, 0.102. Then GCGAGTGAAATGCAAGCAAG, with 0.219; and GCCCTTGAAATGCAAGCAAG, with 0.073; and CGCTATGAAATGCAAGCAAG, with 0.0236. As for CAACGTGAAATGCAAGCAAG, the figure is 0.14.

CAATATGAAATGCAAGCAAG: the “AGO1 loading enrichment factor” value was 0.0636. Consider TCTACTGAAATGCAAGCAAG, for which the “AGO1 loading enrichment factor” value is 0.558. As for GTGGCTGAAATGCAAGCAAG, the figure is 0.0878; as for ATCGTTGAAATGCAAGCAAG, 0.0802. As for GATCTTGAAATGCAAGCAAG, the figure is 0.0841; as for AAAAGTGAAATGCAAGCAAG, 0.131; as for TGCGATGAAATGCAAGCAAG, 0.177.

For CCCTTTGAAATGCAAGCAAG, the “AGO1 loading enrichment factor” value was determined as 0.00466. As for CACACTGAAATGCAAGCAAG, the figure is 0.0733. As for TCTTCTGAAATGCAAGCAAG, the figure is 0.628; as for TCTCCTGAAATGCAAGCAAG, 1.04.

For the sequence CGAGTTGAAATGCAAGCAAG, the “AGO1 loading enrichment factor” value is 0.0578.

As to TAGAGTGAAATGCAAGCAAG, the “AGO1 loading enrichment factor” value amounted to 0.463. Then GATTATGAAATGCAAGCAAG, with 0.0903; and TACGTTGAAATGCAAGCAAG, with 0.457.

Regarding GATAGTGAAATGCAAGCAAG, the “AGO1 loading enrichment factor” value is 0.133. As for CCCGCTGAAATGCAAGCAAG, the figure is 0.0541; as for CATGATGAAATGCAAGCAAG, 0.0772; as for CCAGTTGAAATGCAAGCAAG, 0.125. AAGTCTGAAATGCAAGCAAG: the “AGO1 loading enrichment factor” value was 0.107. Then CTAGATGAAATGCAAGCAAG, with 0.0886.

Regarding CAGATTGAAATGCAAGCAAG, the “AGO1 loading enrichment factor” value turned out to be 0.0513.

As for AAGCCTGAAATGCAAGCAAG, the “AGO1 loading enrichment factor” value was 0.225. In the case of ACAGATGAAATGCAAGCAAG, the “AGO1 loading enrichment factor” value came out at 0.139. For the sequence TCTAGTGAAATGCAAGCAAG, the “AGO1 loading enrichment factor” value was found to be 0.317. As for CAATGTGAAATGCAAGCAAG, the figure is 0.335. As for GGAGGTGAAATGCAAGCAAG, the figure is 1.61; as for TAAGCTGAAATGCAAGCAAG, 0.162; as for TCTGATGAAATGCAAGCAAG, 0.378.

On to AGTTATGAAATGCAAGCAAG, for which the “AGO1 loading enrichment factor” value was 0.104.

Consider GAATTTGAAATGCAAGCAAG, for which the “AGO1 loading enrichment factor” value worked out at 0.121. As for ACGGCTGAAATGCAAGCAAG, the figure is 0.164; as for GACCATGAAATGCAAGCAAG, 0.45; as for AAGGCTGAAATGCAAGCAAG, 0.0441. As to CACGCTGAAATGCAAGCAAG, the “AGO1 loading enrichment factor” value was 0.024. Then TTCTGTGAAATGCAAGCAAG, with 0.18. Then ACAAGTGAAATGCAAGCAAG, with 0.214; and GGAACTGAAATGCAAGCAAG, with 0.195. Regarding CCCACTGAAATGCAAGCAAG, the “AGO1 loading enrichment factor” value was 0.123. For the sequence GAGGTTGAAATGCAAGCAAG, the “AGO1 loading enrichment factor” value worked out at 0.554. Then CAAGATGAAATGCAAGCAAG, with 0.102; and TGTGGTGAAATGCAAGCAAG, with 0.197. Then AATACTGAAATGCAAGCAAG, with 0.278; and GGCACTGAAATGCAAGCAAG, with 0.0816; and ATACATGAAATGCAAGCAAG, with 0.183. Then CGGTATGAAATGCAAGCAAG, with 0.107. In the case of ATCGCTGAAATGCAAGCAAG, the “AGO1 loading enrichment factor” value stood at 0.113. As for CATGTTGAAATGCAAGCAAG, the figure is 0.0534; as for TTCCCTGAAATGCAAGCAAG, 1.04. Then TAGACTGAAATGCAAGCAAG, with 0.453; and ACAGTTGAAATGCAAGCAAG, with 0.165. As for CAGGGTGAAATGCAAGCAAG, the figure is 0.453; as for GCATGTGAAATGCAAGCAAG, 0.00702; as for GCAACTGAAATGCAAGCAAG, 0.132. Turning to AGATGTGAAATGCAAGCAAG, the “AGO1 loading enrichment factor” value worked out at 0.158.

For the origin of these results see the supplement of paper PMC6451100.
